Consider 42 sequences from PMC7819943, “Rice protein-binding microarrays: a tool to detect cis-acting elements near promoter regions in rice”.

This is one part of the list.

The target in this experiment is T1, OsWOX13 (Oryza sativa, UniProt Q5QMM3 1-267).
T1 sequence: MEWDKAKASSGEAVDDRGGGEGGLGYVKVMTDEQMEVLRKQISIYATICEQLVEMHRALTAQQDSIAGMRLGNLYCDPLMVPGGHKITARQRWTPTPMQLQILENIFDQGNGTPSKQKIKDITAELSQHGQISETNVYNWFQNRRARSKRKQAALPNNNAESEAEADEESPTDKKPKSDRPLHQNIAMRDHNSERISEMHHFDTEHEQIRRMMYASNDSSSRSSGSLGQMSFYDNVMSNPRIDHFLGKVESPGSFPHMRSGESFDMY
The experiment can be described thus: protein-binding microarray (RPBM); PBS, 2% BSA, 51.3 ng/ul salmon testes DNA, 50 uM zinc acetate, 200 nM TF, 25 C, 1 h; high values mean tight binding. The note with it: protein: recombinant; tags: N-terminal polyhistidine and DsRed monomer fusion (pET32a); label: CyDye5-dUTP incorporated in the synthesized complementary strand; 3' TTTTT single-stranded linker to array surface; dsDNA, one strand shown. The essentials:
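The binding signal is fluorescence intensity per feature, in arbitrary units, read on an Axon 4000B scanner. Polyhistidine- and DsRed-tagged transcription factors (N-terminal fusions) from E. coli BL21-CodonPlus were purified on Ni–NTA and applied at 200 nM for 1 h at 25 °C to a double-stranded, BSA-blocked custom Agilent array in buffer with 50 µM zinc acetate.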
In the case of “TAATTAATTGAGTCATGCACATGTCTCTTTAATTTGGCTTCGGAGTCACCTAGTGCAG”, the binding signal is 45700 fluorescence intensity (a.u.).

For “AAAATATATGAAATTTTAATTATATTATTAAGCTACTACTCGGAGTCACCTAGTGCAG”, the binding signal is 5270 fluorescence intensity (a.u.).

Consider “ATTCATATAATTTGTATCACCTCAATAATAATTGGTATCACGGAGTCACCTAGTGCAG”, for which the binding signal is 14700 fluorescence intensity (a.u.). Turning to “ACAATCAAAGAAGCTGTTAACTTCCATCAAAACTTTGATTCGGAGTCACCTAGTGCAG”, the binding signal was 4200 fluorescence intensity (a.u.). As for “TTGAAATTGAAACGATGTGACAGAAAAGTTAGAAGTTTGTCGGAGTCACCTAGTGCAG”, the figure is 24000 fluorescence intensity (a.u.).

“AAGTTGTTAGTCAAGGTGATTAGGTTGGATGATTTGACCTCGGAGTCACCTAGTGCAG”: the binding signal is 14200 fluorescence intensity (a.u.).

Consider “GGAGTTAAATTATACTCCCTCCTTCCGTTTGACACTGTTGCGGAGTCACCTAGTGCAG”, for which the binding signal is 5020 fluorescence intensity (a.u.).

For the sequence “GTAACTGAAATTTATATGTCATTCATTGCTCTTAGCTTTTCGGAGTCACCTAGTGCAG”, the binding signal is 6110 fluorescence intensity (a.u.). As for “AAATGATTAGGTGAACTTTCAAGAATATATAGGGAATTTTCGGAGTCACCTAGTGCAG”, the figure is 6990 fluorescence intensity (a.u.); as for “CTTGATGATACGTGAAACTTAAAACTTGATACATGCCGGACGGAGTCACCTAGTGCAG”, 3580 fluorescence intensity (a.u.). The value for “GTATAGATAAAATTGATATAGATGGTAAAAGTTTGAAAGTCGGAGTCACCTAGTGCAG” was 7440 fluorescence intensity (a.u.); that for “GAAATCAATGAAGCAGCTAATTTGCTGCTACTCATTATTTCGGAGTCACCTAGTGCAG” was 3790 fluorescence intensity (a.u.); that for “AGGAATAACCAATCAATCGTTAAAATTCAGGCTGTGAAAACGGAGTCACCTAGTGCAG” was 7020 fluorescence intensity (a.u.). As to “TGTGATTACTGCAAGCATTTGCAATAGGAATTCAGATATACGGAGTCACCTAGTGCAG”, the binding signal was 14300 fluorescence intensity (a.u.).

As for “TGCTGAATTACTCATTTAGGTCTAGACGAAATACACATTGCGGAGTCACCTAGTGCAG”, the binding signal is 4700 fluorescence intensity (a.u.).

For “TTGGTTAAGGTCTAACGGGTCAATCAACAACCGTGTCTTCCGGAGTCACCTAGTGCAG”, the binding signal is 3480 fluorescence intensity (a.u.). The value for “TAAACAAAATGTAATTTATGTTTGTTAATATAGTACTCTCCGGAGTCACCTAGTGCAG” was 14000 fluorescence intensity (a.u.). The value for “CAAAATTTGCCTAAACTTATCCCGCGGTCGCTCGTCCCTACGGAGTCACCTAGTGCAG” was 7400 fluorescence intensity (a.u.). As for “AGATAACTGAAGGTGAGCAACTAGTACTCTGTATTGTCCTCGGAGTCACCTAGTGCAG”, the binding signal is 9320 fluorescence intensity (a.u.). With “TTCGGTTTTATTTTAATTGACATTTTGGACAATGATACGGCGGAGTCACCTAGTGCAG”, the binding signal was 27900 fluorescence intensity (a.u.). The value for “AGAAAATTATTTTATAAATTATTTATAATCAAATATTTTACGGAGTCACCTAGTGCAG” was 11000 fluorescence intensity (a.u.); that for “GGCCCACTGATTGCTTGCTTTCAAATGTCTAGTGGAGCAACGGAGTCACCTAGTGCAG” was 18400 fluorescence intensity (a.u.). As for “CTAGGATAGACGAGGAACGTGGGCTCAACCTGCTATCTGGCGGAGTCACCTAGTGCAG”, the figure is 3670 fluorescence intensity (a.u.); as for “CCATGTGATTGACGATGCTCTTATTAACTTCTAACTTGACCGGAGTCACCTAGTGCAG”, 47000 fluorescence intensity (a.u.); as for “TTCTCTAATTTCTTATCCTGATCAGATTTATAGTGAGATTCGGAGTCACCTAGTGCAG”, 9000 fluorescence intensity (a.u.). Take “ACGCGGCTTTGATTGCTCGCGCTTATCCCGGTGGACGTCGCGGAGTCACCTAGTGCAG”: the binding signal is 11200 fluorescence intensity (a.u.). Take “GACATATTGTCACCGGTTTTGATTAGTTGTGGATATCTGGCGGAGTCACCTAGTGCAG”: the binding signal is 6960 fluorescence intensity (a.u.).

For “CCTTATAATTAATTTATAAATTATATAATTAAAATTAAAACGGAGTCACCTAGTGCAG”, the binding signal is 13700 fluorescence intensity (a.u.).

As for “TCTCGACCAATCACAGCGCGTCAGCTGCGTCACCCGAGTCCGGAGTCACCTAGTGCAG”, the binding signal is 9600 fluorescence intensity (a.u.). As for “TTTGACAGAGAGAGTATACTAGATGGTACGTGTTGTCAGGCGGAGTCACCTAGTGCAG”, the figure is 21200 fluorescence intensity (a.u.); as for “CACCGACAATCATTGAGACACGCACATGCAGCTACCGCTGCGGAGTCACCTAGTGCAG”, 6010 fluorescence intensity (a.u.). Consider “GATAATGGAAGATCACAAAATTCGAGAGGAAATCCATGATCGGAGTCACCTAGTGCAG”, for which the binding signal is 6940 fluorescence intensity (a.u.). “ACCAGATTGACCTTGTAGTGCTTTGCCTGAAGAGCAGTGACGGAGTCACCTAGTGCAG”: the binding signal is 8270 fluorescence intensity (a.u.). The value for “CTACAAATTAATAATTATTCTCTAATAAGCTGTTTTGACTCGGAGTCACCTAGTGCAG” was 25100 fluorescence intensity (a.u.); that for “GGTCTCCAATTAAGTGTGAGTCAATTTCTAGCGATGATATCGGAGTCACCTAGTGCAG” was 16700 fluorescence intensity (a.u.). As for “AAAATTACAATGACATGGATCCAATTGATCCTATTAAACCCGGAGTCACCTAGTGCAG”, the figure is 8360 fluorescence intensity (a.u.); as for “AGATTCCTGTCATGTGTCCAATTAAGGCTTTGTTCATCGTCGGAGTCACCTAGTGCAG”, 4440 fluorescence intensity (a.u.); as for “GTTTGACCAATCTTCAGCTTTGATTGAGACGCTGACTTTTCGGAGTCACCTAGTGCAG”, 33000 fluorescence intensity (a.u.). For the sequence “CAATTTTATTTTCTGTTATCTGATTTGTGTTACCATGACGCGGAGTCACCTAGTGCAG”, the binding signal is 4250 fluorescence intensity (a.u.). As for “GATCAATTATCGGCACTACCTGCTCGGCTAGAGCTTTGCCCGGAGTCACCTAGTGCAG”, the figure is 10500 fluorescence intensity (a.u.); as for “CTAATAATATAGATATTTAAATTAGGTAATTAGTAAATTCCGGAGTCACCTAGTGCAG”, 9480 fluorescence intensity (a.u.).

As for “CGTTAATTACACCGCGTAACCCTGGTTAGTTATCTTTGGACGGAGTCACCTAGTGCAG”, the binding signal is 35800 fluorescence intensity (a.u.).
